Holding throughout (assay): protein-binding microarray (PBM)
Holding throughout (conditions): PBM: ~300 nM protein, 6 mM HEPES pH 7.8, 80 mM KCl, 0.5 mM EDTA, 0.5 mM EGTA, 6% glycerol, 35 ng/ul poly-dIdC, 1% milk, 1 h, room temperature; Ap Aiptasia and Nv Nematostella (sea anemones) / Co Capsaspora / Aq Amphimedon (sponge) / Dm Drosophila / Hu human; RHD is the Rel homology domain; high values mean tight binding; most listed sequences are background and not binding sites; double strand, one strand shown

The target in one assay is T1, GST-Ap-NF-kB RHD (UniProt A0A913YAJ5).
T1 sequence: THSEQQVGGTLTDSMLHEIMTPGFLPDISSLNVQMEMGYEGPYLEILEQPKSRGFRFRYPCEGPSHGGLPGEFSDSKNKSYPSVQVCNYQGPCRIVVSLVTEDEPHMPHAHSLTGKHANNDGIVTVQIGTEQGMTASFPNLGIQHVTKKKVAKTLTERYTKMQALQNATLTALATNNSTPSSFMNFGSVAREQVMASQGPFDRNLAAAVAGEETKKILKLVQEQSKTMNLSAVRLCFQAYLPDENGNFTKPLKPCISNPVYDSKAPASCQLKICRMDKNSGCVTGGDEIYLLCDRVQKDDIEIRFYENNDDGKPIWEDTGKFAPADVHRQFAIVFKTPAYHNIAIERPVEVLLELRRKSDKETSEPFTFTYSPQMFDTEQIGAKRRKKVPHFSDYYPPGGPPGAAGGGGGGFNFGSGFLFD

The target of assay [1] is T2, GST-Nv-NF-kB (Cys allele) (UniProt E5G601).
T2 sequence: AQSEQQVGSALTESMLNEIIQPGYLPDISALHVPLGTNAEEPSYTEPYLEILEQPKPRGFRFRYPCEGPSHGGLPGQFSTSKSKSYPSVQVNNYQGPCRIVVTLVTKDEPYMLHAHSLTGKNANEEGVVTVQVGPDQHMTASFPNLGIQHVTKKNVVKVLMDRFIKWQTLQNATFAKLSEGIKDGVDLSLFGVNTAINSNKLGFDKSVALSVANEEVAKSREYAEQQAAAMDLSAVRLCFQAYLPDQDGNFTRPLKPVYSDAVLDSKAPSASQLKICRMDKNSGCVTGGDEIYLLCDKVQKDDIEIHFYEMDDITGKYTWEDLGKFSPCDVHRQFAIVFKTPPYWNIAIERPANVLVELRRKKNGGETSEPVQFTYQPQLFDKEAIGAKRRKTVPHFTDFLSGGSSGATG

Another assay concerns the target T3, GST-Co-NF-kB (UniProt F1ARL5).
T3 sequence: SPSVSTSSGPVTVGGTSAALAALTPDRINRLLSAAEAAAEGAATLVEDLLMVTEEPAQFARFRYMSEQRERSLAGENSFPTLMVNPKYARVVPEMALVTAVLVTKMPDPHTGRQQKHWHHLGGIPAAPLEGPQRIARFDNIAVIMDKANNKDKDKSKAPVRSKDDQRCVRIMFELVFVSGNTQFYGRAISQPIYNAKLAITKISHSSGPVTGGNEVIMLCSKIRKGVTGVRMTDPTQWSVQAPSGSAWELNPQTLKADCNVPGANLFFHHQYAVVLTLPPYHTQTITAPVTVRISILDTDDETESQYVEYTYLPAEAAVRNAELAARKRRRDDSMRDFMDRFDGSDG

Only a part is listed here, and it is no random draw. The list includes weakly bound sequences.

“CCGATTAACATCACAAAATTTCCTGATGTTAATCGGGTCTTGATTCGCTTGACGCTGCTG”: the binding signal with GST-Ap-NF-kB RHD is 0.265 z-score; in assay [1], -0.058 z-score; in the assay with GST-Co-NF-kB it was 0.606 z-score.
The like results for “CCGATTAACATCAGGAATAACCATGATGTTAATCGGGTCTTGATTCGCTTGACGCTGCTG” were, in that order, 0.237 z-score, 0.554 z-score and 0.297 z-score.
In the same order, the values of “CCGATTAACATCAAAAATTTCCGTGATGTTAATCGGGTCTTGATTCGCTTGACGCTGCTG” are 0.279 z-score, 0.366 z-score and 0.879 z-score.
Turning to “CCGATTAACATCACAACTCCCCCTGATGTTAATCGGGTCTTGATTCGCTTGACGCTGCTG”, the binding signal with GST-Ap-NF-kB RHD stood at 5.84 z-score; in assay [1], 4.69 z-score; with GST-Co-NF-kB, 6.16 z-score.
As to “CCGATTAACATCAGGGGAAAATATGATGTTAATCGGGTCTTGATTCGCTTGACGCTGCTG”, the binding signal was determined as 6.98 z-score with GST-Ap-NF-kB RHD, 8.57 z-score in assay [1] and 10.2 z-score with GST-Co-NF-kB.
The like results for “CCGATTAACATCAAGGACTTTCCTGATGTTAATCGGGTCTTGATTCGCTTGACGCTGCTG” were, in that order, 0.519 z-score, 1.03 z-score and -0.152 z-score.
The like results for “CCGATTAACATCACGGGATCTCCTGATGTTAATCGGGTCTTGATTCGCTTGACGCTGCTG” were, in that order, 2.16 z-score, 0.527 z-score and 0.247 z-score.
Consider “CCGATTAACATCACGGGGGGAAATGATGTTAATCGGGTCTTGATTCGCTTGACGCTGCTG”, for which the binding signal with GST-Ap-NF-kB RHD was 6.31 z-score; in assay [1], 6.61 z-score; with GST-Co-NF-kB, 11.2 z-score.
In the same order, the values of “CCGATTAACATCAAAGAAGTCCCTGATGTTAATCGGGTCTTGATTCGCTTGACGCTGCTG” are 5.78 z-score, 6.68 z-score and 0.765 z-score.
The like results for “CCGATTAACATCACAGGGAATTCTGATGTTAATCGGGTCTTGATTCGCTTGACGCTGCTG” were, in that order, 4.57 z-score, 5.56 z-score and 3.45 z-score.
In the same order, the values of “CCGATTAACATCAAAATTTTCCGTGATGTTAATCGGGTCTTGATTCGCTTGACGCTGCTG” are 0.376 z-score, 0.267 z-score and 0.952 z-score.
For the sequence “CCGATTAACATCAGGAAAGTACATGATGTTAATCGGGTCTTGATTCGCTTGACGCTGCTG”, the results for the binding signal (in the assay with GST-Ap-NF-kB RHD; in assay [1]; with GST-Co-NF-kB) were -0.604 z-score, 0.0184 z-score and 0.383 z-score, respectively.
The like results for “CCGATTAACATCAACGGAAATCCTGATGTTAATCGGGTCTTGATTCGCTTGACGCTGCTG” were, in that order, 0.114 z-score, 0.316 z-score and 0.437 z-score.
In the same order, the values of “CCGATTAACATCAGGAAATCCACTGATGTTAATCGGGTCTTGATTCGCTTGACGCTGCTG” are -0.015 z-score, 0.000445 z-score and 0.0456 z-score.
For the sequence “CCGATTAACATCACATACTCCCCTGATGTTAATCGGGTCTTGATTCGCTTGACGCTGCTG”, the figures for the binding signal (with GST-Ap-NF-kB RHD; in assay [1]; in the assay with GST-Co-NF-kB) were 4.4 z-score, 3.45 z-score and 3.69 z-score, respectively.
In the same order, the values of “CCGATTAACATCAAAATCCCCCATGATGTTAATCGGGTCTTGATTCGCTTGACGCTGCTG” are 9.1 z-score, 9.28 z-score and 6.67 z-score.
In the same order, the values of “CCGATTAACATCAAAAAATTCCTTGATGTTAATCGGGTCTTGATTCGCTTGACGCTGCTG” are -0.0519 z-score, 0.932 z-score and 0.0336 z-score.
Take “CCGATTAACATCAAATTTTCCCCTGATGTTAATCGGGTCTTGATTCGCTTGACGCTGCTG”: the binding signal in the assay with GST-Ap-NF-kB RHD was 7.95 z-score; in assay [1], 9.83 z-score; with GST-Co-NF-kB, 11.6 z-score.
In the same order, the values of “CCGATTAACATCAGGAATTCCGATGATGTTAATCGGGTCTTGATTCGCTTGACGCTGCTG” are 0.374 z-score, -0.093 z-score and -0.559 z-score.
Consider “CCGATTAACATCAGGGGTTTCCATGATGTTAATCGGGTCTTGATTCGCTTGACGCTGCTG”, for which the binding signal came to 5.75 z-score with GST-Ap-NF-kB RHD, 5.04 z-score in assay [1] and 1.21 z-score with GST-Co-NF-kB.
